In publication PMC12528744:
Numbering of substitutions follows the chain as printed. No constants are given. Whether binding was seen depends on the method and setting. Binding seen in cells or lysates may run through a third protein. Some binding calls cover weakened binding; strength is not graded here. For some assays here: Sequences can lack the tags named with a protein.

Amino acid sequences for entries named in this document (tags omitted). A change or cut given only in a name is not applied to a line headed by its entry. Chains listed by the source or under a name are the forms on record and can include a tag or linker.
UniProt P42224: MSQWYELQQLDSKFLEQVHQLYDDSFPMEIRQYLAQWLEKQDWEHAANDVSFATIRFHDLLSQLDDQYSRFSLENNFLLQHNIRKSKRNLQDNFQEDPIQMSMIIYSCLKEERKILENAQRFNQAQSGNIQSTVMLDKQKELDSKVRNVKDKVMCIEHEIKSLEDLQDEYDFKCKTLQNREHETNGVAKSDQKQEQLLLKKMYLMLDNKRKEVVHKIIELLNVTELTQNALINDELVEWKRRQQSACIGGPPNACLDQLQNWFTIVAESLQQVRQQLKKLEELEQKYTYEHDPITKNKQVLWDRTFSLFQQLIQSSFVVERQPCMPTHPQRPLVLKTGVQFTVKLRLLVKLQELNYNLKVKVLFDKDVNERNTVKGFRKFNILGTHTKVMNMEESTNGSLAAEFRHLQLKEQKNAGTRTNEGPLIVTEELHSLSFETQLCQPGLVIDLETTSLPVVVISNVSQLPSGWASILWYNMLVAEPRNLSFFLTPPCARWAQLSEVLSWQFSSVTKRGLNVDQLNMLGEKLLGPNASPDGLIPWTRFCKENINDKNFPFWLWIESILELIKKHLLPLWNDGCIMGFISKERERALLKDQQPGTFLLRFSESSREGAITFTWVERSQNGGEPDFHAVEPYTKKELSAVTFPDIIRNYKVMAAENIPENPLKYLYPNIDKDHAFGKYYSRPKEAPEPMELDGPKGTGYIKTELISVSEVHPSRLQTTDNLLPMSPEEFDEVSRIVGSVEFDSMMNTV
UniProt Q9H8M2: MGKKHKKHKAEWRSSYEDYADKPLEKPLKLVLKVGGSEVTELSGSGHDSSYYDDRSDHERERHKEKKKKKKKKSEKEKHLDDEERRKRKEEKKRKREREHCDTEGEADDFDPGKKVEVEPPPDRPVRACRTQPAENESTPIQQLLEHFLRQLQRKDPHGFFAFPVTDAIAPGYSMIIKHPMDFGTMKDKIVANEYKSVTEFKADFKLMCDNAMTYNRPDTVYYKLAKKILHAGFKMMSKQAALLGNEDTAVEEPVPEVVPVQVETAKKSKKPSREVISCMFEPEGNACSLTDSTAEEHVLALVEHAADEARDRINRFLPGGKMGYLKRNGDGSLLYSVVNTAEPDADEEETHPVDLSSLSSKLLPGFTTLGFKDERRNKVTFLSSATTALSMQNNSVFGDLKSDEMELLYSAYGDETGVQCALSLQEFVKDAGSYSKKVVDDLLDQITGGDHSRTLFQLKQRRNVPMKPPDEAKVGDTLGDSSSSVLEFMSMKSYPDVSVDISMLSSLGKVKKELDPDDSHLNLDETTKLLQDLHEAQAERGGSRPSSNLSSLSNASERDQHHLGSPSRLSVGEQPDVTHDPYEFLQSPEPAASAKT
UniProt Q9NPF5: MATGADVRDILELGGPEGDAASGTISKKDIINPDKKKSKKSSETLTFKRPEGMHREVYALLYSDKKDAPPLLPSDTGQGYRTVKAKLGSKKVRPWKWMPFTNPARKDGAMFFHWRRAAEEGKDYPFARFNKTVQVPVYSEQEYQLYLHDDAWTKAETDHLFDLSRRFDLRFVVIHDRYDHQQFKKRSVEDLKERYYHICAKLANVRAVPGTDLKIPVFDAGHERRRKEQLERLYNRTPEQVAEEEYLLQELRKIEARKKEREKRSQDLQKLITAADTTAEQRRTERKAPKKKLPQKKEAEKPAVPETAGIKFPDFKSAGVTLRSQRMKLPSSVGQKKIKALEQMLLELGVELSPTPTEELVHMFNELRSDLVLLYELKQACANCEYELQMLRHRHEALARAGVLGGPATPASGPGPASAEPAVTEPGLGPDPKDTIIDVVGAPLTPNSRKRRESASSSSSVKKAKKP
UniProt O15131: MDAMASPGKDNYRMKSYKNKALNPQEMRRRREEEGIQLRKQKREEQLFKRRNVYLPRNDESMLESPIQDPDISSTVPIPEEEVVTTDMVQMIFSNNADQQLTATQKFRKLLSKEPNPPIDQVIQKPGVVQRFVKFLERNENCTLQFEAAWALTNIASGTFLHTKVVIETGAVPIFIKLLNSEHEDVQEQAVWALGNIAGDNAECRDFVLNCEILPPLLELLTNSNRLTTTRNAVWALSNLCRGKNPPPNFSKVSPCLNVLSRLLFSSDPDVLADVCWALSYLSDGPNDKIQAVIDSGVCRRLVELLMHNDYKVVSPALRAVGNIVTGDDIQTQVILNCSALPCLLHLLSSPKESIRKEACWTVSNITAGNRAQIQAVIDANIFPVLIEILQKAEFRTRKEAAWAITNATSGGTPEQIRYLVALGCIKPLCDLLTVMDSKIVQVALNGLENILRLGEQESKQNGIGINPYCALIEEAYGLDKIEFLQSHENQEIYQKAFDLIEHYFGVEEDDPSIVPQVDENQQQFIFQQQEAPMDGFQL
UniProt Q12824: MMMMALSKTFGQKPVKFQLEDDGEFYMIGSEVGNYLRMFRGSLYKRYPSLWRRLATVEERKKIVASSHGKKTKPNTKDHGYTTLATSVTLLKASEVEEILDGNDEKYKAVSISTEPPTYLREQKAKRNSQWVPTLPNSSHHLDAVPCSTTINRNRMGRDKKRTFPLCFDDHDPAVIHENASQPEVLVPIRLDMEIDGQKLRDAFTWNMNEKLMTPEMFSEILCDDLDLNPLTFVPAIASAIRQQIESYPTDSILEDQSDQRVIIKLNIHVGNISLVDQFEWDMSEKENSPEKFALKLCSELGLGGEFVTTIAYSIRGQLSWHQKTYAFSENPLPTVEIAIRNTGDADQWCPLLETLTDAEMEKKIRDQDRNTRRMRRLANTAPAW
UniProt Q969G3: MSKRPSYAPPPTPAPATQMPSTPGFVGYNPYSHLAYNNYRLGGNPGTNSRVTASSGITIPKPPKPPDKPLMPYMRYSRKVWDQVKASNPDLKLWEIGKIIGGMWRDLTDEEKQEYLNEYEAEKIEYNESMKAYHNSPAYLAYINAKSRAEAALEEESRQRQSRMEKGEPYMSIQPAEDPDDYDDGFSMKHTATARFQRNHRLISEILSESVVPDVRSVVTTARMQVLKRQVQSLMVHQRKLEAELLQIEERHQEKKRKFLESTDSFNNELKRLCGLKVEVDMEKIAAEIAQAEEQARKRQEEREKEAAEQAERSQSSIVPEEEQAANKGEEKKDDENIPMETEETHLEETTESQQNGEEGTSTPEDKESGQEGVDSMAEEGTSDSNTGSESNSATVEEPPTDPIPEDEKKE
SMARCE1^ILV-A reconstituted in SMARCE1-knockout A549 cells (Q969G3, form named): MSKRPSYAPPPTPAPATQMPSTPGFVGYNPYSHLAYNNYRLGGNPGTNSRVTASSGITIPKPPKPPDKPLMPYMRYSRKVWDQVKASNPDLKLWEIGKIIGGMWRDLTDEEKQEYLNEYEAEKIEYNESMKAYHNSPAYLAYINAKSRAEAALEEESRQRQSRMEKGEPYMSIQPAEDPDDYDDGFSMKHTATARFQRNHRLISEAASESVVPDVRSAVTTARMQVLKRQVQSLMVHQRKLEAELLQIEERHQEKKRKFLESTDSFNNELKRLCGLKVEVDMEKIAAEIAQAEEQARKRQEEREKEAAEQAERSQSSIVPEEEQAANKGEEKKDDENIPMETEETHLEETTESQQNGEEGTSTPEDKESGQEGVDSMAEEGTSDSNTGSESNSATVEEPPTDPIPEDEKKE
SMARCE1^Y73F/170F (Q969G3, form named): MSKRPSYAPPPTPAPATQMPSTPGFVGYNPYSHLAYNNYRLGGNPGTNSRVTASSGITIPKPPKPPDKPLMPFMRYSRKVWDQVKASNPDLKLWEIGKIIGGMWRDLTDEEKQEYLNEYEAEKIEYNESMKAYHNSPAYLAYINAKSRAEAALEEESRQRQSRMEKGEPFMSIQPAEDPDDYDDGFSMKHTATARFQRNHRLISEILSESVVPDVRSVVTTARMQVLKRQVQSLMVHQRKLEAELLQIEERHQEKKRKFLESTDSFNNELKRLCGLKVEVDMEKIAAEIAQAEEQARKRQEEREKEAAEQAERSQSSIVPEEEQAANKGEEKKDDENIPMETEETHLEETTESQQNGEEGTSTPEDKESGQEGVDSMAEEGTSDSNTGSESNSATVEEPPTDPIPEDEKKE
UniProt O96019: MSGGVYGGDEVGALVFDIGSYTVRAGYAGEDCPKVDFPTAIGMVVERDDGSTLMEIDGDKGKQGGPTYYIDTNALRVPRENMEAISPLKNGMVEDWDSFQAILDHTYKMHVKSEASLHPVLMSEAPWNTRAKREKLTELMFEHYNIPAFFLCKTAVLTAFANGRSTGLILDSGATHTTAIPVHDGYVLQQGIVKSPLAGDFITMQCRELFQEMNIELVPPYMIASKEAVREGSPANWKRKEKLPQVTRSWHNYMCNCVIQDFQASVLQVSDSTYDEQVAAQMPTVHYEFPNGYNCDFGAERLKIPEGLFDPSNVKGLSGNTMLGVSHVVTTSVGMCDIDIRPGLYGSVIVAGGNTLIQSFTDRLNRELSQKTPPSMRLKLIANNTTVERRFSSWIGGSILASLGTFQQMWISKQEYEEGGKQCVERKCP
UniProt P51532: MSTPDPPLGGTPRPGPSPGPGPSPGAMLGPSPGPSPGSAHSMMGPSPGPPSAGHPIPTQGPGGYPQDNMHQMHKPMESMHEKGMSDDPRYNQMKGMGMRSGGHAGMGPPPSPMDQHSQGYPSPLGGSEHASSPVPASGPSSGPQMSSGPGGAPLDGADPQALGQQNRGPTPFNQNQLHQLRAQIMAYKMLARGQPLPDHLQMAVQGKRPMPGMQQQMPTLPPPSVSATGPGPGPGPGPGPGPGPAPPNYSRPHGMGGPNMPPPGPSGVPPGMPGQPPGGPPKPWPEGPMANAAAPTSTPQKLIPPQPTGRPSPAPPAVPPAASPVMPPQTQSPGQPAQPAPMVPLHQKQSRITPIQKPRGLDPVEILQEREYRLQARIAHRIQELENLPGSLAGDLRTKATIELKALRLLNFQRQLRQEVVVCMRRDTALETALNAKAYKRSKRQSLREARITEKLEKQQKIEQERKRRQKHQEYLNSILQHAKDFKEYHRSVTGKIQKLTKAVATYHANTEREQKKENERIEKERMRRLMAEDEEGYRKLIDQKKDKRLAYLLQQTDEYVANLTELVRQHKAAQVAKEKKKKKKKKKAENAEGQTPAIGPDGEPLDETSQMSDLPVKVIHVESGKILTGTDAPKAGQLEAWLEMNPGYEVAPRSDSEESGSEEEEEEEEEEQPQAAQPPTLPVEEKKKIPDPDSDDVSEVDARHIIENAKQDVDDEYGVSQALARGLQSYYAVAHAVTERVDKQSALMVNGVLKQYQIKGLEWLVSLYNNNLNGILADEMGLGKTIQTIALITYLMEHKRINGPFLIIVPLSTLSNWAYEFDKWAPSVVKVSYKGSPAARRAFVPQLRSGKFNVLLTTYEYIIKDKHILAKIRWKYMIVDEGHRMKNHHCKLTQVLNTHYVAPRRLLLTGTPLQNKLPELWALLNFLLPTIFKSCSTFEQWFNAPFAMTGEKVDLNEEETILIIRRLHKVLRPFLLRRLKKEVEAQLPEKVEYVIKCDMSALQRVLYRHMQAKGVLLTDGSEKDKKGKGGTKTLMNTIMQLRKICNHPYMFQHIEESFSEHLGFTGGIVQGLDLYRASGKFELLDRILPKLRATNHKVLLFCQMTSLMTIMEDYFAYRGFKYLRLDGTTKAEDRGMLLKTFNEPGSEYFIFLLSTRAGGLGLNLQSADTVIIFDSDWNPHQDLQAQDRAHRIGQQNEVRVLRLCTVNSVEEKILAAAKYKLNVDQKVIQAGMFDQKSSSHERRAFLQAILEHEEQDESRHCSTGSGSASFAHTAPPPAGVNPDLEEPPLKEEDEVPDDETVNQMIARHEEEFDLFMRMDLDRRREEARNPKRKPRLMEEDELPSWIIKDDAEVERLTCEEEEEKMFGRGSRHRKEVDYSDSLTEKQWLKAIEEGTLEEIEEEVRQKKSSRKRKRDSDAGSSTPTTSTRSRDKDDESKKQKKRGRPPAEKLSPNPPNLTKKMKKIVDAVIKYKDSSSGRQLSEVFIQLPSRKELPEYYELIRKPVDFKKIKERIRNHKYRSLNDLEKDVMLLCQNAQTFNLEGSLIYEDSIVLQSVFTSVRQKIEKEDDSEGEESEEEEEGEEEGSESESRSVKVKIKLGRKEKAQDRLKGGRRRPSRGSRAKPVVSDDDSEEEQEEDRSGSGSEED

Columns and labels:
[1] = target: T1, Flag-tagged human GLDC (glycine decarboxylase), wild type (human) (UniProt P23378); assay: co-IP; tagged proteins overexpressed in transfected cells (HEK293/EGFR treated with EGF 100 ng/ml for 30 min, or co-expression of SRC); NP-40 lysis buffer, Protein-G Sepharose, 4 °C 3 h, washes with lysis buffer containing 500 mM NaCl; immunoblotting
T1 sequence (chain, phosphotyrosine at Y993 and Y1008 after EGF stimulation or SRC overexpression): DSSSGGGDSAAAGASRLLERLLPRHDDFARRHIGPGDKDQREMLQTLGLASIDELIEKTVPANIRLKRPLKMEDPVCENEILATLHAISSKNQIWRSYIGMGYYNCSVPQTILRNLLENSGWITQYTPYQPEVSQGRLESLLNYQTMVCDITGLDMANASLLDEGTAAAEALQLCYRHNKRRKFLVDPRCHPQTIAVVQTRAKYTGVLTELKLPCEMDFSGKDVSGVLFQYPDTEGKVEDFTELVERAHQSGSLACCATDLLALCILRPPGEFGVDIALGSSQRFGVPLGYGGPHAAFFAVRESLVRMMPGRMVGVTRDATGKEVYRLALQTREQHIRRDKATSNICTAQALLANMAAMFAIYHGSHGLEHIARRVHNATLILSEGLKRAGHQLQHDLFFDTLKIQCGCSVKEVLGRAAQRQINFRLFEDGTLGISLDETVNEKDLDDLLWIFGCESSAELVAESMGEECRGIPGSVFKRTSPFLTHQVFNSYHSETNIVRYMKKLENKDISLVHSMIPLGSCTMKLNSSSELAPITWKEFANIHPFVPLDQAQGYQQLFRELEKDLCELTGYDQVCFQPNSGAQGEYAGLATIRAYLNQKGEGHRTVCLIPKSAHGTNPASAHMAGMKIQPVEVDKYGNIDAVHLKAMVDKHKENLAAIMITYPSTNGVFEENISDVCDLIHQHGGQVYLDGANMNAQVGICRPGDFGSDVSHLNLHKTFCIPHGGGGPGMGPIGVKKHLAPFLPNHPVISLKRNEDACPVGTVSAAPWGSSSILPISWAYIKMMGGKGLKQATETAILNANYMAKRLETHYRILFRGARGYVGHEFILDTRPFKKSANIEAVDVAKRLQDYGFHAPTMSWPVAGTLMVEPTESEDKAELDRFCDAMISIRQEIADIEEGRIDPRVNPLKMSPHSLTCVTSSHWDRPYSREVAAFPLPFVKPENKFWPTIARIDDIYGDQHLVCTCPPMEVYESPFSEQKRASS

[2] = target: T2, GLDC (glycine decarboxylase), endogenous (human (endogenous in A549)) (UniProt P23378); assay: co-IP; endogenous proteins, subcellular (nuclear) fractions of cells serum-starved 12 h and treated with or without EGF 100 ng/ml for 6 h; immunoblotting
T2 sequence (chain, phosphotyrosine at Y993 and Y1008 after EGF stimulation): T1 sequence (chain, phosphotyrosine at Y993 and Y1008 after EGF stimulation or SRC overexpression)

[3] = target: T2, GLDC (glycine decarboxylase), endogenous (human (endogenous in A549)); assay: co-IP; endogenous proteins, A549 cells (serum-starved then EGF 100 ng/ml 30 min, or cultured with EGF 20 ng/mL 24 h; also control, GLDC-, DMAP1- or SMARCE1-deficient cells); NP-40 lysis buffer, washes with 500 mM NaCl; immunoblotting
[4] = target: STAT1, endogenous (human (endogenous in A549)) (UniProt P42224); assay: as above
[5] = target: STAT1, transfected (UniProt P42224); assay: co-IP; tagged proteins overexpressed in transfected cells (HEK293/EGFR treated with EGF 100 ng/ml for 30 min, or co-expression of SRC); NP-40 lysis buffer, Protein-G Sepharose, 4 °C 3 h, washes with lysis buffer containing 500 mM NaCl; immunoblotting
[6] = target: T2, GLDC (glycine decarboxylase), endogenous (human (endogenous in A549)); assay: co-IP; SMARCE1-knockout A549 cells reconstituted with SMARCE1 or its mutants, cultured with EGF 20 ng/mL 24 h; partners endogenous; immunoblotting
[7] = target: STAT1, endogenous (human (endogenous in A549)) (UniProt P42224); assay: as above
[8] = target: T3, Flag-GLDC^Y993F/Y1008F (human) (UniProt P23378); assay: co-IP; tagged proteins overexpressed in transfected cells (HEK293/EGFR treated with EGF 100 ng/ml for 30 min, or co-expression of SRC); NP-40 lysis buffer, Protein-G Sepharose, 4 °C 3 h, washes with lysis buffer containing 500 mM NaCl; immunoblotting
T3 sequence: T1 sequence (chain, phosphotyrosine at Y993 and Y1008 after EGF stimulation or SRC overexpression) with Y958F, Y973F

[9] = target: T4, GLDC^L998A/V999A (human) (UniProt P23378); assay: as above
T4 sequence: T1 sequence (chain, phosphotyrosine at Y993 and Y1008 after EGF stimulation or SRC overexpression) with L963A, V964A

Substance | binding [1] | other results
BRD9 (from UniProt Q9H8M2 1-597) | no binding | –
DMAP1, endogenous (from UniProt Q9NPF5 1-467) | – | binding [2]: binds; binding [3]: binds
DMAP1^L145A/W152A (from UniProt Q9NPF5 1-467) | no binding | –
Importin α4 (from UniProt O00505 1-521) | no binding | –
Importin α5 (from UniProt P52294 1-538) | no binding | –
Importin α6 (from UniProt O15131 1-539) | no binding | –
Importin α7 (from UniProt O60684 1-536) | no binding | –
SMARCB1 (from UniProt Q12824 1-385) | no binding | –
SMARCD1 (from UniProt Q96GM5 1-515) | no binding | –
SMARCE1, endogenous (from UniProt Q969G3 1-411) | – | binding [2]: binds; binding [3]: binds; binding [4]: binds
SMARCE1^I206A/L207A/V218A, transfected (from UniProt Q969G3 1-411) | – | binding [5]: no binding
SMARCE1^ILV-A reconstituted in SMARCE1-knockout A549 cells (from UniProt Q969G3 1-411) | – | binding [6]: binds; binding [7]: no binding
SMARCE1^Y73F, transfected (from UniProt Q969G3 1-411) | binds | –
SMARCE1^Y73F/170F (from UniProt Q969G3 1-411) | – | binding [5]: binds
human DMAP1, wild type, transfected (from UniProt Q9NPF5 1-467) | binds | binding [8]: no binding; binding [9]: no binding
wild-type SMARCE1 reconstituted in SMARCE1-knockout A549 cells (from UniProt Q969G3 1-411) | – | binding [6]: binds; binding [7]: binds

Second part, led by results:

binding [1] | Substance | other results
no binding | ACTL6A (from UniProt O96019 1-429) | –
no binding | Importin α3 (from UniProt O00629 1-521) | –
no binding | SMARCA4 (from UniProt P51532 1-1647) | –
no binding | SMARCE1^L93A/I96A/I99A (from UniProt Q969G3 1-411) | –
no binding | SMARCE1^Y170F, transfected (from UniProt Q969G3 1-411) | –
binds | human SMARCE1, wild type, transfected (from UniProt Q969G3 1-411) | binding [8]: no binding; binding [9]: no binding; binding [5]: binds
